According to patent US20090143279A1 (priority 2007, published 2009):
“And” between values parts separate entries of the source, which are not always exact repeats. Equal entries are not always repeated.

tested on: cellular ATP levels; details: not given

Compound	ATP
O=C1OCCN1/N=C/c1ccc([N+](=O)[O-])o1 [furazolidone]	1.071 and 1.326

same assay, conditions: 8.76 μM; composite Z-score vs DMSO

Compound	ATP
Cc1cc(N)c2ccccc2[n+]1CCCCCCCCCC[n+]1c(C)cc(N)c2ccccc21 [dequalinium]	−5.078

same assay, conditions: 13.54 μM; composite Z-score vs DMSO

Compound	ATP
COC(=O)Nc1nc2ccc(C(=O)c3ccccc3)cc2[nH]1 [mebendazole, methyl[5-benzoyl-benzimidazol-2-carbamate], reference compound]	0.344

same assay, conditions: 13.86 μM; composite Z-score vs DMSO

Compound	ATP
CCCCN1CCCCC1C(=O)Nc1c(C)cccc1C (stereo not shown) [bupivacaine]	−0.329

same assay, conditions: 20 μM; composite Z-score vs DMSO

Compound	ATP
CCCCN1CCCCC1C(=O)Nc1c(C)cccc1C (stereo not shown) [bupivacaine]	−1.058
CCOC(=O)CCC(=O)O[C@H]1[C@H](O[C@@H]2[C@@H](C)[C@H](O[C@H]3C[C@@](C)(OC)[C@@H](O)[C@H](C)O3)[C@@H](C)C(=O)O[C@H](CC)[C@@](C)(O)[C@H](O)[C@@H](C)C(=O)[C@H](C)C[C@@]2(C)O)O[C@H](C)C[C@@H]1N(C)C [erythromycin ethylsuccinate]	0.825
NC(=O)c1ccc[n+]([C@@H]2O[C@H](COP(=O)([O-])OP(=O)(O)OC[C@H]3O[C@@H](n4cnc5c(N)ncnc54)[C@H](OP(=O)(O)O)[C@@H]3O)[C@@H](O)[C@H]2O)c1	0.550
Cc1cc(N)c2ccccc2[n+]1CCCCCCCCCC[n+]1c(C)cc(N)c2ccccc21 [dequalinium]	−5.120
COC(=O)Nc1nc2ccc(C(=O)c3ccccc3)cc2[nH]1 [mebendazole, methyl[5-benzoyl-benzimidazol-2-carbamate], reference compound]	−0.483

same assay, conditions: Conc 20 μM; normalized score vs mock-treated (DMSO) wells

Compound	ATP (composite Z-score)
COc1c(O)cccc1O [2-methoxyresorcinol]	0.150
O=C(/C=C/c1ccccc1)c1ccc(O[C@@H]2O[C@H](CO)[C@@H](O)[C@H](O)[C@H]2O)cc1O [2′,4′-dihydroxychalcone 4′-glucoside]	0.137
CO[C@H]1C[C@H](O[C@H]2CC[C@]3(C=O)[C@H]4CC[C@]5(C)[C@@H](C6=CC(=O)OC6)CC[C@]5(O)[C@@H]4CC[C@]3(O)C2)O[C@H](C)[C@H]1O [cymarin]	−0.332
C[C@@H]1[C@H]2[C@H](O[C@@H]3O[C@H](CO)[C@@H](O)[C@H](O)[C@H]3O)OC=C(C(=O)O)[C@H]2C[C@@H]1O [loganic acid]	−0.276
O=C(CCCCCCCCCCCCC1CCCC1)Nc1ccc(S(=O)(=O)c2ccc(NC(=O)CCCCCCCCCCCCC3CCCC3)cc2)cc1 [chaulmosulfone]	−0.078
O=c1cc(-c2cc(O)c(O)c(O)c2)oc2cc(O)cc(O)c12 [hieracin, reference compound]	0.806
C/C1=C\CC(C)(C)/C=C/CC2(C)OC2CC1 (stereo not shown) [epoxy (1,11)humulene]	0.320
CCN1C[C@]2(C)CC[C@H](OC)[C@@]34C1[C@]1(OCO[C@@]15C[C@H](OC)[C@H]1C[C@]3(O)[C@@H]5[C@H]1OC)[C@@H](OC(C)=O)[C@H]24 [deltaline]	0.619
COC(=O)[C@@H]1OC(=O)[C@H]2O[C@@]23[C@@]1(C)CCC1[C@@]2(C)CCC(=O)C(C)(C)C2C[C@@H](OC(C)=O)[C@]13C (stereo partly shown) [dihydrogeduninic acid, methyl ester]	0.519
COC(=O)C[C@H]1C(C)(C)C2(O)OC34CC2C(=O)[C@]1(C)C3CC[C@]1(C)C4=CC(=O)O[C@H]1c1ccoc1 (stereo partly drawn) [8beta-hydroxycarapin, 3,8-hemiacetal]	−0.147

same assay, conditions: Table 4; C2C12 myotubes, 48 h, composite Z-score

Compound	ATP
O=c1cc(-c2cc(O)c(O)c(O)c2)oc2cc(O)cc(O)c12 [hieracin, reference compound]	0.806

same assay, conditions: composite Z-score vs DMSO wells; Conc 20 μM

Compound	ATP
CCOc1ccc(NC(C)=O)cc1 [phenacetin]	1.310
CC[C@@]1(O)C[C@H](O[C@H]2C[C@H](N(C)C)[C@H](O)[C@H](C)O2)c2c(cc3c(c2O)C(=O)c2c(O)cccc2C3=O)[C@H]1C(=O)OC [aklavine]	−8.498
C[C@@H]1CC[C@H]2[C@@H](C)C(=O)O[C@@H]3O[C@@]4(C)CC[C@@H]1[C@]32OO4 [artemisinin]	0.737
CC(NCCC(c1ccccc1)c1ccccc1)c1ccccc1 (stereo not shown) [fendiline]	0.842
CCOC(=O)[N-]c1cn(N2CCOCC2)n[o+]1 [molsidomine]	−0.269
CC(=O)O[C@H]1C[C@H](O[C@H]2[C@@H](O)C[C@H](O[C@H]3[C@@H](O)C[C@H](O[C@H]4CC[C@@]5(C)[C@H](CC[C@@H]6[C@@H]5C[C@@H](O)[C@]5(C)[C@@H](C7=CC(=O)OC7)CC[C@]65O)C4)O[C@@H]3C)O[C@@H]2C)O[C@H](C)[C@H]1O[C@@H]1O[C@H](CO)[C@@H](O)[C@H](O)[C@H]1O [lanatoside C]	0.349
NC(=O)c1ccc([N+](=O)[O-])cc1Cl [aklomide]	1.316

same assay, conditions: composite Z-score vs DMSO; Conc 20 μM

Compound	ATP
COc1ccc2cc([C@H](C)CO)ccc2c1 [naproxol]	0.350
CC(C)[C@@H](C)/C=C/[C@@H](C)[C@H]1CC[C@H]2C3=CC=C4C[C@@H](O)CC[C@]4(C)[C@H]3CC[C@]12C [ergosterol]	−0.762
COC(=O)N/N=C/c1c[n+]([O-])c2ccccc2[n+]1[O-] [carbadox]	−0.297
CC1=C(O)C(=O)C=C2C1=CC=C1[C@@]2(C)CC[C@@]2(C)[C@@H]3C[C@](C)(C(=O)O)CC[C@]3(C)CC[C@]12C [celastrol]	−8.640
CCN1C[C@]2(COC)[C@H](O)C[C@H](OC)[C@@]34[C@@H]5C[C@@]6(O)[C@H](OC(=O)c7ccccc7)[C@@H]5[C@@](OC(C)=O)([C@@H]([C@H](OC)[C@H]23)[C@@H]14)[C@@H](O)[C@@H]6OC [aconitine]	0.350
CCCCCc1c2c(cc(O)c1C(=O)O)OC(=O)c1c(cc(OC)cc1C(=O)CCCC)O2 [lobaric acid]	−0.552
COc1ccc(-c2coc3cc(O)ccc3c2=O)c(OC)c1O [koparin 2′-methyl ether]	−0.071
CC(=O)O[C@H]1CC[C@@]2(C)C(=CC[C@H]3[C@@H]4CC[C@H]([C@H](C)CCCC(C)C)[C@@]4(C)CC[C@@H]32)C1 [cholesteryl acetate]	0.018
CC[C@H]1OC(=O)[C@H](C)[C@@H](O[C@H]2C[C@@](C)(OC)[C@@H](O)[C@H](C)O2)[C@H](C)[C@@H](O[C@@H]2O[C@H](C)C[C@H](N(C)C)[C@H]2O)[C@](C)(OC)C[C@@H](C)C(=O)[C@H](C)[C@@H](O)[C@]1(C)O [clarithromycin]	−0.911
Cc1c(C(=O)O)c(O)cc2c1C(=O)c1c(O)c([C@@H]3O[C@H](CO)[C@@H](O)[C@H](O)[C@H]3O)c(O)c(O)c1C2=O [carminic acid]	−0.059
totarol acetate	0.031
COC(=O)CCC(=O)O[C@H]1CC[C@@]2(C)[C@@H](CC[C@@H]3[C@@H]2C(=O)C(O)[C@]2(C)[C@@H]4[C@H](C[C@@H]32)O[C@]2(CC[C@@H](C)CO2)[C@H]4C)C1 (stereo partly shown)	−0.092
O=C1CC[C@]23/C=C/C(=O)NCCCCNCCCNC(=O)/C=C/c4ccc(c2c4)O[C@@H]3C1 [lunarine]	0.517

same assay, conditions: composite Z-score vs mock-treated (DMSO) wells; Conc 20 μM

Compound	ATP
CCOC(=O)c1c(C)cc(O)c(C=O)c1O [haematommic acid, ethyl ester]	−0.324
C[C@H](C[C@@H](O)[C@@H]1OC1(C)C)[C@@H]1CC[C@]2(C)C3=CC[C@H]4C(C)(C)C(=O)CC[C@]4(C)[C@H]3CC[C@@]12C (stereo in doubt) [niloticin]	0.356
Cc1cc(=O)c2c(O)c(C)c(O)cc2o1 [eugenitol]	0.166
C[C@@H]([C@H]1OC(C)(C)[C@@H](O)[C@H]1O)[C@@H]1CC[C@]2(C)C3=CC[C@H]4C(C)(C)C(=O)CC[C@]4(C)[C@H]3CC[C@@]12C [odoratone]	0.474
CCC(=O)OC1[C@@H]2CC3=C4CC(=O)O[C@@H](c5ccoc5)[C@]4(C)CCC3[C@@](C)(C2=O)[C@@H](CC(=O)OC)C1(C)C (stereo partly shown) [khayasin C]	−0.324
COc1cccc(-c2cc(=O)c3cc(OC)ccc3o2)c1 [6,3′-dimethoxyflavone]	−2.332
COc1cc(O)c(C(=O)c2ccccc2)cc1O [cearoin]	−1.727
CC1(C)CC[C@]2(C(=O)O)CC[C@]3(C)C(=CC[C@@H]4[C@@]5(C)CC[C@H](O)C(C)(C)[C@@H]5CC[C@]43C)[C@@H]2C1 [oleanoic acid]	1.083
COC(=O)[C@@H]1OC(=O)C2OC23[C@@]1(C)CCC1[C@]2(C)C(C[C@@H](O)[C@]13C)C(C)(C)[C@H](OC(C)=O)C[C@@H]2OC(C)=O (stereo partly shown)	0.731
CC(=O)O[C@H]1C[C@@H](OC(C)=O)C(C)(C)C2CC(=O)[C@]3(C)C(CC[C@@]4(C)[C@H](c5ccoc5)OC(=O)[C@H]5O[C@]543)[C@]21C (stereo partly shown) [7-deacetoxy-7-oxokhivorin]	−0.644
CCC(C)C(=O)O[C@@H]1C[C@@]2(C)[C@H](c3ccoc3)OC(=O)CC23OC2(C)OC34[C@H](OC(=O)C(C)C)[C@@]3(O)[C@@H](OC(=O)C5(C)OC5C)[C@@]5(C)C[C@]3(O)[C@@](C)([C@H]5CC(=O)OC)C14O2 (stereo partly shown) [entandrophragmin]	1.006

same assay, conditions: normalized composite Z-score vs mock-treated (DMSO) wells; Conc 20 μM

Compound	ATP
C=C1CC[C@@H]2[C@](C)(CO)[C@H](O)CC[C@@]2(C)[C@@H]1C/C=C1/C(=O)OC[C@H]1O [andrographolide]	0.416
CC(=O)O[C@]1(C)CC[C@@]23C[C@@H]1C(C)(C)[C@@H]2CC[C@H]3C [cedryl acetate]	0.493
CC1=C2C(O)C(=O)OC3CC4C(C)(C)C(=O)C=C[C@]4(C)C(CC1)[C@]23C (stereo partly shown) [merogedunin]	2.064
COc1ccc2c(c1)O[C@H]1c3ccc(OC)cc3OC[C@@H]21 [homopterocarpin]	0.381
CC1=C(/C=C/C(C)=C/C=C/C(C)=C/C=C/C=C(C)/C=C/C=C(C)/C=C/[C@@]23O[C@]2(C)C[C@@H](O)CC3(C)C)C(C)(C)C[C@H](O)C1 [antheraxanthin]	0.403
C=C[C@@](C)(O)CCC1C(=C)CCC2[C@@](C)(CO)CCC[C@]12C (stereo partly drawn) [epi(13)torulosol]	1.007
C[C@@H]1C(=O)O[C@H]2C[C@@]34[C@H]5C[C@@H](C(C)(C)C)[C@]36[C@@H](OC(=O)[C@@H]6O)O[C@@]4(C(=O)O5)[C@]21O [ginkgolide A]	−0.205
COc1ccc(-c2coc3c(OC)c(O)ccc3c2=O)cc1 [7-hydroxy-8,4′-dimethoxyisoflavone]	0.309
CC(=O)OC1CCC23CC1(C)CCC2C(C)(C)CC3OC(C)=O (stereo not shown) [clovanediol diacetate]	−0.009

same assay, conditions: screen, FIG. 9a, in words

Compound	cellular ATP levels
CC(C)n1c(/C=C/C(O)CC(O)CC(=O)O)c(-c2ccc(F)cc2)c2ccccc21 (stereo not shown) [fluvastatin, reference compound]	strong decreases
